# Measurements as given in the supplement of paper PMC8728848.
# This is one part of the list.
# B1: GS14009A-pdi-495-27-495 (Parabacteroides distasonis) (protein)
# chain: FEEVNTDPDSPTDVPTTNLLAYSLYYTSYRLYDRWFAMDEPMTFCGYASKMTYIDESRYNFRTGVQDTNWEYLYRILNNLKDIEKRATFNETPNMLNVSKVMQVHLMQVATDRWRDVPYTDAAKMTDGILQPKYDKQEDIYPGLLATLKEAADGFADGGSDDLGEGDLLFGGDIEKWQRYCNSMRLRLAMRISEVSPALAKETVEEVMGNPTKYPIMESNDDNAFFWWIGTDPNYYEPMADGYRTRKTEYCAADVIVDHMNTREDPRRSSYFQPTKESVEAGEPKYVGYTIGAKANAVASKYSIWGARFFTDLAGFSPYMRVAEPWFCVAEASMLGWNTGISAEDAYNKAVTYSMEENSVSAEDIADYLANAGKFTNDKKQIYYEEWVAMFKQGMEGWSLYRRTGVPDNLYPAPGRPANYSNHNVPPFRSPYPDKERNLNNANCAPFDAEVVDNLWGKQMWWDTRTGVH
# How the values were obtained:
# Assay in all cases: glycan array binding signal (z-score within array); higher = stronger binding
# Conditions in all cases: glycan notation: IUPAC condensed, linker removed
# Gal3S6S(b1-4)GlcNAc = biological target: Gal3S6S(b1-4)GlcNAc
# Procedure, shortened: (§1)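 Columns mapping to the same glycan were averaged after glycan names were converted to IUPAC-condensed notation. The data come from 3228 arrays in the Consortium for Functional Glycomics database, limited to those with an available protein sequence. Binding is reported as a within-array Z-score averaged across arrays of one protein sequence and across linkers.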
# Gal3S6S(b1-4)GlcNAc6S = biological target: Gal3S6S(b1-4)GlcNAc6S
# Procedure, shortened: as §1
# Gal4S(b1-4)GlcNAc = biological target: Gal4S(b1-4)GlcNAc
# Procedure, shortened: as §1
# Gal4S6S(b1-4)GlcNAc = biological target: Gal4S6S(b1-4)GlcNAc
# Procedure, shortened: as §1
# Gal6P(b1-4)GlcNAc = biological target: Gal6P(b1-4)GlcNAc
# Procedure, shortened: as §1
# Gal6S(b1-3)GlcNAc = biological target: Gal6S(b1-3)GlcNAc
# Procedure, shortened: as §1
# Gal6S(b1-3)GlcNAc6S = biological target: Gal6S(b1-3)GlcNAc6S
# Procedure, shortened: as §1
# Gal6S(b1-4)Glc = biological target: Gal6S(b1-4)Glc
# Procedure, shortened: as §1
# Gal6S(b1-4)Glc6S = biological target: Gal6S(b1-4)Glc6S
# Procedure, shortened: as §1
# Gal6S(b1-4)GlcNAc = biological target: Gal6S(b1-4)GlcNAc
# Procedure, shortened: as §1
# Gal6S(b1-4)GlcNAc6S = biological target: Gal6S(b1-4)GlcNAc6S
# Procedure, shortened: as §1
# GalNAc(a1-3)Gal = biological target: GalNAc(a1-3)Gal
# Procedure, shortened: as §1
# GalNAc(a1-3)GalNAc = biological target: GalNAc(a1-3)GalNAc
# Procedure, shortened: as §1
# [1] = biological target: GalNAc(a1-3)GalNAc(b1-3)Gal(a1-4)Gal(b1-4)Glc
# Procedure, shortened: as §1
# [2] = biological target: GalNAc(a1-3)GalNAc(b1-3)Gal(a1-4)Gal(b1-4)GlcNAc
# Procedure, shortened: as §1
# GalNAc(b1-3)Gal = biological target: GalNAc(b1-3)Gal
# Procedure, shortened: as §1
# [3] = biological target: GalNAc(b1-3)Gal(a1-4)Gal(b1-4)GlcNAc
# Procedure, shortened: as §1
# [4] = biological target: GalNAc(b1-3)Gal(a1-4)Gal(b1-4)GlcNAc(b1-3)Gal(b1-4)Glc
# Procedure, shortened: as §1
# [5] = biological target: GalNAc(b1-3)Gal(a1-6)Gal(b1-4)Glc
# Procedure, shortened: as §1
# GalNAc(b1-3)GalNAc = biological target: GalNAc(b1-3)GalNAc
# Procedure, shortened: as §1
# GalNAc(b1-3)GlcNAc = biological target: GalNAc(b1-3)GlcNAc
# Procedure, shortened: as §1
# GalNAc(b1-4)Gal(b1-4)Glc = biological target: GalNAc(b1-4)Gal(b1-4)Glc
# Procedure, shortened: as §1
# GalNAc(b1-4)GlcNAc = biological target: GalNAc(b1-4)GlcNAc
# Procedure, shortened: as §1
# [6] = biological target: GalNAc(b1-4)GlcNAc(b1-2)Man
# Procedure, shortened: as §1
# [7] = biological target: GalNAc(b1-4)GlcNAc(b1-2)Man(a1-3)[GalNAc(b1-4)GlcNAc(b1-2)Man(a1-6)]Man(b1-4)GlcNAc(b1-4)GlcNAc
# Procedure, shortened: as §1
# [8] = biological target: GalNAc(b1-4)GlcNAc(b1-3)GalNAc(b1-4)GlcNAc
# Procedure, shortened: as §1
# GalNAc(b1-4)GlcNAc6S = biological target: GalNAc(b1-4)GlcNAc6S
# Procedure, shortened: as §1
# GalNAc(b1-6)GalNAc = biological target: GalNAc(b1-6)GalNAc
# Procedure, shortened: as §1
# GalNAc3S(b1-4)GlcNAc = biological target: GalNAc3S(b1-4)GlcNAc
# Procedure, shortened: as §1
# GalNAc3S(b1-4)GlcNAc3S = biological target: GalNAc3S(b1-4)GlcNAc3S
# Procedure, shortened: as §1
# [9] = biological target: GalNAc3S(b1-4)[Fuc(a1-3)]GlcNAc
# Procedure, shortened: as §1
# GalNAc4S6S(b1-4)GlcNAc = biological target: GalNAc4S6S(b1-4)GlcNAc
# Procedure, shortened: as §1
# GalNAc6S(b1-4)GlcNAc = biological target: GalNAc6S(b1-4)GlcNAc
# Procedure, shortened: as §1
# Glc(a1-4)Glc = biological target: Glc(a1-4)Glc
# Procedure, shortened: as §1
# [10] = biological target: Glc(a1-4)Glc(a1-4)Glc(a1-4)Glc
# Procedure, shortened: as §1
# Glc(a1-6)Glc(a1-6)Glc = biological target: Glc(a1-6)Glc(a1-6)Glc
# Procedure, shortened: as §1
# [11] = biological target: Glc(a1-6)Glc(a1-6)Glc(a1-6)Glc
# Procedure, shortened: as §1
# Glc(b1-4)Glc = biological target: Glc(b1-4)Glc
# Procedure, shortened: as §1
binder,measurement,setting,value
B1,glycan array binding signal (z-score),Gal3S6S(b1-4)GlcNAc,-0.34
same,glycan array binding signal (z-score),Gal3S6S(b1-4)GlcNAc6S,0.712
same,glycan array binding signal (z-score),Gal4S(b1-4)GlcNAc,-0.28
same,glycan array binding signal (z-score),Gal4S6S(b1-4)GlcNAc,-0.854
same,glycan array binding signal (z-score),Gal6P(b1-4)GlcNAc,-0.561
same,glycan array binding signal (z-score),Gal6S(b1-3)GlcNAc,-0.313
same,glycan array binding signal (z-score),Gal6S(b1-3)GlcNAc6S,0.006
same,glycan array binding signal (z-score),Gal6S(b1-4)Glc,0.253
same,glycan array binding signal (z-score),Gal6S(b1-4)Glc6S,1.06
same,glycan array binding signal (z-score),Gal6S(b1-4)GlcNAc,-0.501
same,glycan array binding signal (z-score),Gal6S(b1-4)GlcNAc6S,0.26
same,glycan array binding signal (z-score),GalNAc(a1-3)Gal,0.447
same,glycan array binding signal (z-score),GalNAc(a1-3)GalNAc,0.253
same,glycan array binding signal (z-score),[1],-0.395
same,glycan array binding signal (z-score),[2],-0.352
same,glycan array binding signal (z-score),GalNAc(b1-3)Gal,-0.403
same,glycan array binding signal (z-score),[3],-0.096
same,glycan array binding signal (z-score),[4],-0.364
same,glycan array binding signal (z-score),[5],0.151
same,glycan array binding signal (z-score),GalNAc(b1-3)GalNAc,-0.605
same,glycan array binding signal (z-score),GalNAc(b1-3)GlcNAc,-0.362
same,glycan array binding signal (z-score),GalNAc(b1-4)Gal(b1-4)Glc,-0.282
same,glycan array binding signal (z-score),GalNAc(b1-4)GlcNAc,0.122
same,glycan array binding signal (z-score),[6],-0.162
same,glycan array binding signal (z-score),[7],0.256
same,glycan array binding signal (z-score),[8],-0.71
same,glycan array binding signal (z-score),GalNAc(b1-4)GlcNAc6S,0.203
same,glycan array binding signal (z-score),GalNAc(b1-6)GalNAc,-0.391
same,glycan array binding signal (z-score),GalNAc3S(b1-4)GlcNAc,-0.416
same,glycan array binding signal (z-score),GalNAc3S(b1-4)GlcNAc3S,0.001
same,glycan array binding signal (z-score),[9],0.471
same,glycan array binding signal (z-score),GalNAc4S6S(b1-4)GlcNAc,0.138
same,glycan array binding signal (z-score),GalNAc6S(b1-4)GlcNAc,-0.487
same,glycan array binding signal (z-score),Glc(a1-4)Glc,-0.285
same,glycan array binding signal (z-score),[10],-0.358
same,glycan array binding signal (z-score),Glc(a1-6)Glc(a1-6)Glc,-0.514
same,glycan array binding signal (z-score),[11],-0.412
same,glycan array binding signal (z-score),Glc(b1-4)Glc,-0.217
